The other results are listed elsewhere or left out.

To fix the notation:
B1: chr7:19736620:19736621:-_ENSG00000105849_ENST00000222567|hu_mus|motif|central (ssRNA)
RNA: GGGAGUUCUACAGUCCGACGAUCAAGAUGCUGGUUAUUUAUCUACCUGUACAUAUUAAAUUGCUGUCAUUCCUUAUGCUCGGUAUACCGUAGAUGAAGUCAAGAAACAUGGUUGCCAGAAUUUACUCCUUAUGAAACAUUAAGCAACAGAGGAUUGAGCAUCA
B2: chr19:3544227:3544228:-_ENSMUSG00000024908_ENSMUST00000113997|mus_hu|FALSE|FALSE (ssRNA)
RNA: GGGAGUUCUACAGUCCGACGAUCAAAGAAAUGUUUUCUUCUUUGUGGCUCCUUGCCCAUUACAGGUUAUCCUGGUAACAGUUUUCCUCCAAUUUACUGCAUUAGCAGAUUAGCAGGAAUACAGUGGGAUAUGGAUAUGAAACACAACAGAGGAUUGAGCAUCA
B3: 20802431_20802551_1810_CDS_ENSMUSG00000036591_ENSMUST00000173194|mouse|control|control (ssRNA)
RNA: GGGAGUUCUACAGUCCGACGAUCAGUCUGUUUUCGUUCCCCAUUUGAGUCAGGUAUCUGACUUUCAGAAUUGACAGUGGCUGUGGCUUCCGUCUGUCCCUCUAUGUAAUCCCACGAACGAGUUCUAUGAUUAUUGAAGCUAACCAACAGAGGAUUGAGCAUCA
B4: chr7:65705844:65705845:+_ENSG00000169902_ENST00000304842|hu_mus|hu_hu_hu_mus_False|8_68 (ssRNA)
RNA: GGGAGUUCUACAGUCCGACGAUCAAACGGAUCUUUGUUACAUAAAUAAGGUGCCGGCUCCCCAUGUUUAACGAUAACCUCCAGAAGGAAGGCUUGCAUGGCAGAAUCUAGCACUUCAUCUGUGACACCAGCCUCAUCCAAGCGCAACAGAGGAUUGAGCAUCA
B5: chr5:138700276:138700277:+_ENSG00000120727_ENST00000265192|hu_hu|motif|central (ssRNA)
RNA: GGGAGUUCUACAGUCCGACGAUCUUCCAGCAUUUCUUGGAAACAGCGUUCAAUAAAUUCUUCUUCCCAUAACUCCUCUUCGGUUUGUCUGUUGAAUUCUUCUUCAUUUUCCAUCCACAUGUACUCUGCAAAUGGAUUGUCAUCCAACAGAGGAUUGAGCAUCA
B6: chr2:204281756:204281757:+_ENSG00000138443_ENST00000261017|hu_hu|FALSE|FALSE (ssRNA)
RNA: GGGAGUUCUACAGUCCGACGAUCCUUUUCCAAGUAAGAACGUGGAGCCCACGGUGGGUCCUCUUCAGCAUAAGGAUCACUAUACUCAACCACAGCAGCUUCCUCCUCUUCGUAAUCUUCUGGAGGAGGAGGAGGUGGGGGAGACAACAGAGGAUUGAGCAUCA
B7: chr2:160605069:160605070:+_ENSG00000136536_ENST00000409591|hu_hu|motif|central (ssRNA)
RNA: GGGAGUUCUACAGUCCGACGAUCAGCUCCAAGAGGAUCAUUCUGUGCUUCAAGGUGAACCACUUCAUUUGAUUCUCUUCGGAAAAUAUGAGAUCUAGAUGAUGUAUCAGAGGUAGGUAUCCUUGAAGAUUCAUCUCUUCCCUCCAACAGAGGAUUGAGCAUCA
B8: chr1:120459247:120459248:-_ENSG00000134250_ENST00000256646|hu_hu|motif|central (ssRNA)
RNA: GGGAGUUCUACAGUCCGACGAUCCCGAGCCACAUCCCGGGGAAGACGAUCCAUAUGGUCUGUGAUGUCUCGAUUGGCAAAAUGGUCGGACAGGAUCUUGGCUGCUUCAUAGCUCCCCUCCCGGGCAGCAAGAAACAGAGGUGUCAACAGAGGAUUGAGCAUCA
B9: chr1:93831146:93831147:+_ENSG00000117505_ENST00000370272|hu_hu|motif|central (ssRNA)
RNA: GGGAGUUCUACAGUCCGACGAUCUAACAGAGGUUCAGUUUCACAGCCUUUCCCUCAAGUGUCUUAUCCUAAAAGUAAAACCGGGAUGAUCUAAGGUGGUGGUUUUCAACAGGGUGCAAUUUUGCCUCCUAUACUCGCAACACCCAACAGAGGAUUGAGCAUCA
B10: 46905009_46906093_746_CDS_ENSG00000141627_ENST00000269445|human|control|control (ssRNA)
RNA: GGGAGUUCUACAGUCCGACGAUCCACUUUCAGCAAACAGCAAAUAAUAAACAAAGCAUUGUGUGUCUGCCAAAUGAAGAUGUGGUUCUGACAUUCUGCUGAAAGUUUUAGUUCUUUGGUUCUAGAAAGGAAGACCUUAAUUAGCAACAGAGGAUUGAGCAUCA
B11: chr8:103840089:103840090:-_ENSG00000155096_ENST00000347770|hu_mus|motif|central (ssRNA)
RNA: GGGAGUUCUACAGUCCGACGAUCUCUCCAUAAUAAAUCUGAACUUCACAAUGAUUACCAAACACAUUUACUUAAAUUACGGAUUAAAUAACUAAAAAGUAUAUUGAGGCAAACCAAACUUAAACGGGUUAUAAAGAAACUAACCAACAGAGGAUUGAGCAUCA
B12: 112035641_112041122_537_CDS_ENSG00000010810_ENST00000368667|human|control|control (ssRNA)
RNA: GGGAGUUCUACAGUCCGACGAUCCACUCCUGUUCCUCCUCUCGUACGCAAGGUCCCCGUAUGAGACGAAGAGUUCACACCUCCAAAGACGGUGAGUCCUUGGCCCCCGGCUGCGUGGAAGUUGUUGUAGUUGGGGAUGGAGGUCAACAGAGGAUUGAGCAUCA
B13: 32622542_32625180_775_3pUTR_ENSMUSG00000002996_ENSMUST00000172314|mouse|control|control (ssRNA)
RNA: GGGAGUUCUACAGUCCGACGAUCUUUUGAAGAAGAGGACACUGGUGGUGGGCGUGCAUAGGAAUGUAAACUUUUGCUAGUAGCUAUGAUGUGUACAGGAGAUGAUCUGUUAUAAAAUGAGCACUGCAUCAGGGGACUUUGUGGCAACAGAGGAUUGAGCAUCA
B14: chr1:109605286:109605287:-_ENSG00000197780_ENST00000461096|hu_mus|hu_hu_hu_mus_True|18_78 (ssRNA)
RNA: GGGAGUUCUACAGUCCGACGAUCAAGUUUCAGAGUAACAUUCAGUAACCUCUUUAACAAUUGUAAUCCUUAUUAUAAGCUAAGCAGAAUAAUAAUUUAAUACCGUAAGUGAACUACCACAAAACCUUGAACCGCGAAAAUGGUCAACAGAGGAUUGAGCAUCA
B15: chr1:225611761:225611762:-_ENSG00000143815_ENST00000272163|hu_mus|hu_hu_hu_mus_True|88_108 (ssRNA)
RNA: GGGAGUUCUACAGUCCGACGAUCCCAGGCCAUCGACCUCUGACCACUUCACCAUCGACAAACUUCCUACUUGGCAUUUUCUAAAAUUAGUCUGGCCGCGCUCCGGCGGGAACUCCAGCCACUCCAGGACAGUCACCAGCAGCCCAACAGAGGAUUGAGCAUCA
B16: chr10:33190432:33190433:-_ENSG00000150093_ENST00000302278|hu_mus|hu_hu_hu_mus_True|1_108 (ssRNA)
RNA: GGGAGUUCUACAGUCCGACGAUCUACAUUUUCAAAACCUGCAUGUGAAUAAAACCCUGGCCACAGAGCCCCAAAACUACCCUACUGUGACUAAGAUGCUGCUGCUGUGAGCUUGGUGUUGCAAAAUCCGCCUGAGUCAGUACUCAACAGAGGAUUGAGCAUCA
B17: chr1:43162399:43162400:+_ENSG00000065978_ENST00000321358|hu_mus|FALSE|FALSE (ssRNA)
RNA: GGGAGUUCUACAGUCCGACGAUCAUUCUGGUAAUUUUGCUGGUAAUUGCGUGGAGGACCCCUACGACGUGGAUAGCGUCUAUAAUGGUUACGGUCUGCUGCGUAUUUACUGCCUUGAACUGGAACUCCACCAGGGCCUGUAACCAACAGAGGAUUGAGCAUCA
B18: chr14:35777207:35777208:+_ENSG00000100902_ENST00000261479|hu_mus|FALSE|FALSE (ssRNA)
RNA: GGGAGUUCUACAGUCCGACGAUCUUUGUCGGGUACUUUCUUCUGUGUGACAAUAACUGCACAGUCCUUUCCUCUGACAGCAACAGAUGUAAGUCCACCCUGGUUAAUAGCCUUAAAAGCAUAUUCUACUUGGUAGAGUCGGCCCAACAGAGGAUUGAGCAUCA
B19: chr3:176768308:176768309:-_ENSG00000177565_ENST00000430069|hu_hu|motif|central (ssRNA)
RNA: GGGAGUUCUACAGUCCGACGAUCACUAAGAUUCCAUAUUCUUGCUGUUGAGUCUCCAGACCCUGAUGCUAGGAGAUCACGGACAGGGUUCCAGGCACAGAUAAAAACUUCAGAUUCAUGGCCCCGCAACACAACAGCUUUAUUCAACAGAGGAUUGAGCAUCA
B20: chr11:4749296:4749297:-_ENSMUSG00000009073_ENSMUST00000109910|mus_hu|FALSE|FALSE (ssRNA)
RNA: GGGAGUUCUACAGUCCGACGAUCGCGACCCGGCACUCCGGGAUUCGGGCCGGAGAUGCCGGGGACGCCUCGGGACGGGACCCCUAGACGGCAGCGGCCCAGACUCCGCGCGCCUCUCAGCGGCCGACUAGGGUCACGGGGCCGCAACAGAGGAUUGAGCAUCA
B21: chr9:95050471:95050472:-_ENSG00000196305_ENST00000443024|hu_hu|FALSE|FALSE (ssRNA)
RNA: GGGAGUUCUACAGUCCGACGAUCAUCCCAUCCAAAUCUUCUGUCAACAUGAAACCCACUCUGGUGAGCAUAUCUUGUAACUAUAUCUUUAAUUGUACCCGCAAGUAUAUGUCCAUAGUGAGGCAGUCCAGUUGCAAAAGGAGGCAACAGAGGAUUGAGCAUCA
B22: chr16:20679341:20679342:+_ENSMUSG00000045983_ENSMUST00000044783|mus_hu|motif|central (ssRNA)
RNA: GGGAGUUCUACAGUCCGACGAUCGACUGGGGAUGGUGAUGGGGUCGGAGAAGGCGACGAAGGCUGGGAUUCUGAAGGGCGGUGCUCUGGGCCAGGCAGCCCUGGCCGGUCAGCAAUGAUUGCUCCCUGUGACCGGUCAUCUGGCAACAGAGGAUUGAGCAUCA

The assay concerns the target T1, UNK ZnF1-3 (human, UniProt Q9C0B0 31-174).
T1 sequence: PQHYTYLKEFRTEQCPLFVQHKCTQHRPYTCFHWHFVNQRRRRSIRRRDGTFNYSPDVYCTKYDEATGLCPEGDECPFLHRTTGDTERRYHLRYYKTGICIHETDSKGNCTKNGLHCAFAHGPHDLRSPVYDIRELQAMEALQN
Nature of the assay: nsRBNS (natural sequence RNA bind-n-seq); RBNS binding buffer (assumed for nsRBNS): 25 mM Tris pH 7.5, 150 mM KCl, 3 mM MgCl2, 0.01% Triton X-100, 500 ug/ml BSA, 20 U/ml SUPERase-In, 4 C; UNK is unkempt and MSI1 is Musashi-1; names of the RNAs are library labels; protein concentration not given here; high values mean tight binding.
Consider B1, for which the binding signal amounted to 1.14 enrichment R.

Regarding B2, the binding signal amounted to 0.804 enrichment R.

In turn, B3 gave a binding signal of 0.791 enrichment R.

B4 yielded a binding signal of 0.634 enrichment R.

B5 showed a binding signal of 0.487 enrichment R.

Turning to B6, the binding signal was found to be 0.895 enrichment R.

For B7, the binding signal is 0.72 enrichment R.

In turn, B8 yielded a binding signal of 1.07 enrichment R.

Take B9: the binding signal was 0.881 enrichment R.

B10 returned a binding signal of 0.72 enrichment R.

Turning to B11, the binding signal amounted to 1.61 enrichment R.

For B12, the binding signal is 0.636 enrichment R.

B13 showed a binding signal of 1.76 enrichment R.

The molecule B14 had a binding signal of 0.792 enrichment R.

As to B15, the binding signal amounted to 1.36 enrichment R.

B16 displayed a binding signal of 1.2 enrichment R.

B17: the binding signal was determined as 0.62 enrichment R.

Consider B18, for which the binding signal worked out at 0.812 enrichment R.

As for B19, the binding signal came out at 1.13 enrichment R.

Take B20: the binding signal came out at 0.284 enrichment R.

For the molecule B21, the binding signal was found to be 1.13 enrichment R.

Turning to B22, the binding signal came out at 0.931 enrichment R.
